Source: PubChem BioAssay AID1745845 (National Center for Advancing Translational Sciences (NCATS), 2022)
Out of some 360,000 compounds screened, about 2,600 (0.72%) were called active. The shares of active, inactive and inconclusive entries below differ from those in the screen. Calls follow the shape of the dose curve; as a rule, active = well fitted inhibition curve with a large enough effect; inconclusive = small, poorly fitted or top-dose-only effect; inactive = no such curve, though single readings can be large or run the other way. Where the call is inconclusive, the potency comes from a doubtful curve fit.

Assay: Primary qHTS for Inhibitors of ATXN expression; also: nearly all actives have a fitted effect of over 55% in size
Details: HEK-293 ATXN2-luciferase reporter, luminescence, 24 h; series mostly up to 57 µM
Procedure, shortened: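 qHTS (up to 57 uM final) was run with 24 h compound exposure of reporter cells at 37 °C. Each well was multiplexed: SteadyGlo luminescence measured ATXN2-luciferase expression after a fluorogenic Gly-Phe-AFC viability readout (25 uM final).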
Potency is read from the fitted curve at half-maximal effect; tags tell the direction and shape of the fitted curve.

| Structure (SMILES) | Potency |
| --- | --- |
| Cc1oc(-c2cccc(Cl)c2)nc1CS(=O)(=O)CC(=O)NC(C)CCc1ccccc1 (stereo not given) | inconclusive: 35.5 µM [inhibitor, single point] |
| Cc1ccc(COc2ccccc2-c2cc(C(=O)N/N=C/c3cccnc3)[nH]n2)cc1 | inconclusive: 22.4 µM [inhibitor, single point] |
| Nc1cccc2c1C(=O)N(C(=O)/C=C/c1cccc(Br)c1)C2=O | inconclusive: 35.5 µM [inhibitor, single point] |
| COc1cccc(/C=N/NC(=O)CNC(=O)C2COc3ccccc3O2)c1O (stereo not given) | active: 8.91 µM |
| C=CCN1C(=O)/C(=C\c2ccc(Cl)cc2)N=C1SCC(=O)NC1CCCCC1 | inactive |
| Cc1cnc(C)c(Nc2nc(C(N)Cc3ccc(Cl)cc3)cs2)n1 (stereo not given) | inconclusive: 39.8 µM [inhibitor, partial curve, poor fit] |
| O=C(NC(=S)Nc1ccccc1N1CCOCC1)c1ccco1 | inactive |
| Oc1ccc2ccccc2c1N=Nc1ccccn1 | inconclusive: 12.6 µM [inhibitor, partial curve, poor fit] |
| CCc1ccc(NC(=O)CN(c2ccc(Cl)cc2)S(=O)(=O)c2ccsc2C(=O)OC)cc1 | inactive |
| O=C(C1CCCN(S(=O)(=O)c2cccc3nsnc23)C1)N1CCN(c2ccccc2)CC1 (stereo not given) | inconclusive: 39.8 µM [inhibitor, single point] |
| Cc1ccc(C(=O)c2c3ccc(C(F)(F)F)cc3[n+]([O-])n2CCCC(N)=O)cc1 | inactive |
| C#CC(CO)N(CCN(Cc1ccccc1)C(C#C)CO)Cc1ccccc1 (stereo not given) | inactive |
| O=C(NNC(=S)NC(=O)c1cccs1)c1cccnc1 | inactive |
| CCN(CC)c1ccc(/C=N/NC(=O)CNC(=O)C2COc3ccccc3O2)c(O)c1 (stereo not given) | inconclusive: 2.82 µM [inhibitor, full curve, poor fit] |
| Cn1c2ccccc2c2nnc(SCC(=O)NCc3ccoc3)nc21 | inactive |
| CCC(=O)NC(c1cc(Cl)c2cccnc2c1O)C(C)C (stereo not given) | active: 7.08 µM |
| Cc1cc(C)cc(NC(=S)N2CCC(c3nc4ccccc4s3)CC2)c1 | inactive |
| CCCCCc1cc(=O)oc2c(C(CCN3CCCC3)c3cc(OC)c(OC)c(OC)c3)c(OC)cc(OC)c12 (stereo not given) | inconclusive: 35.5 µM [inhibitor, single point] |
| CCCCOc1ccc(C(=O)N/N=C/c2cn[nH]c2-c2ccc(OC)c(OC)c2)cc1 | inconclusive: 0.844 µM [inhibitor, partial curve, poor fit] |
| CN(Cc1ccccc1)C(=O)c1cccc(NC(=O)C2CCCN(C(=O)OC(C)(C)C)C2)c1 (stereo not given) | inconclusive: 31.6 µM [inhibitor, single point] |
| COc1ccc(S(=O)(=O)Nc2ccc3oc4c(c3c2)CCCC4)cc1 | inconclusive: 28.2 µM [inhibitor, partial curve, poor fit] |
| Cc1cc(Cl)ccc1OCC(=O)Nc1ccccc1N1CCOCC1 | inactive |

| Structure (SMILES) | Potency |
| --- | --- |
| CC(C)CC(N)c1csc(Nc2ccc(C(=O)c3ccccc3)cc2)n1 (stereo not given) | inconclusive: 22.4 µM [inhibitor, partial curve, poor fit] |
| CCN(CC)c1ccc(NC(=O)Nc2ccccc2)cc1 | inactive |
| COc1cccc(NC(=O)CCNC(=O)C2CCN(S(=O)(=O)c3ccc(F)cc3)CC2)c1 | inconclusive: 20 µM [inhibitor, partial curve, poor fit] |
| COc1ccc(NC(=S)/N=C(\N)Nc2nc(C)c3ccc(C)cc3n2)cc1 | inconclusive: 31.6 µM [inhibitor, single point] |
| O=C(/C=C/c1cccnc1)/C=C/c1cccnc1 | inconclusive: 39.8 µM [inhibitor, single point] |
| COc1cccc(-c2nc(C(=O)NCC3CCCO3)cc3c2[nH]c2ccccc23)c1 (stereo not given) | inconclusive: 31.6 µM [inhibitor, single point] |
| CN(C)CCNC(=O)c1cccc(-c2cnc3c(NC=O)cc(-c4cc(F)c(F)c(F)c4)cn23)c1 | inconclusive: 25.1 µM [inhibitor, single point] |
| CC(C)CN(C(=O)c1cccc(Cl)c1)c1c(N)n(CC(C)C)c(=O)[nH]c1=O | inactive |
| CC(C)C[C@H](CO)N(Cc1ccccc1)S(=O)(=O)N(Cc1ccccc1)[C@@H](CO)CC(C)C | inconclusive: 39.8 µM [inhibitor, single point] |
| O=C(Nc1ccc(F)cc1)Nc1cc(OCC(F)(F)F)cc(OCC(F)(F)F)c1 | active: 11.2 µM |
| Cc1sc2ncnc(SCC(=O)NNC(=O)COc3cccc4ccccc34)c2c1C | inconclusive: 39.8 µM [inhibitor, single point] |
| Cc1cc(C)c2cc(CN(Cc3nnnn3C3CCCCC3)CC3CCCO3)c(=O)[nH]c2c1 (stereo not given) | inconclusive: 39.8 µM [inhibitor, single point] |
| COc1ccc(-n2c(N3CCN(C)CC3)nc3sc4c(c3c2=O)CCCCC4)cc1 | inconclusive: 22.4 µM [inhibitor, partial curve, poor fit] |
| Cc1ccc(C(C)C)c(OCCSc2nc3ccccc3n2CC(O)CO)c1 (stereo not given) | inconclusive: 39.8 µM [inhibitor, single point] |
| C[C@H](CO)N1C[C@H](C)[C@H](CN(C)C(=O)Nc2ccc(C(F)(F)F)cc2)OCc2cnnn2CCCC1=O | inactive |
| CCc1ccc(C(=O)c2cn(Cc3ccc(F)cc3)c3cc(OC)c(OC)cc3c2=O)cc1 | inconclusive: 31.6 µM [inhibitor, single point] |
| CN(C)CCCN(C(=O)c1ccc(S(=O)(=O)N2CCCCCC2)cc1)c1nc2ccc(Br)cc2s1 | active: 31.6 µM |
| CN(C)Cc1ccc(F)cc1Sc1cc(Cl)ccc1Cl | inconclusive: 10 µM [inhibitor, partial curve] |
| Cc1ccc(C)c(N2CCN(C(=O)CCS(=O)(=O)c3ccc4c(c3)NC(=O)CO4)CC2)c1 | inconclusive: 11.2 µM [inhibitor, partial curve] |
| COc1cccc(-c2sc3ccccc3c2-c2ccc(OCCN3CCCCC3)cc2)c1 | inconclusive: 35.5 µM [inhibitor, single point] |
| CCOC(=O)Cc1csc(NC(=O)CSc2ncnc3c2cnn3-c2ccccc2Cl)n1 | inactive |
| CCOC(=O)c1c(N2C(=O)C3C4C=CC(O4)C3C2=O)sc2c1CCCC2 (stereo not given) | inconclusive: 39.8 µM [inhibitor, partial curve, poor fit] |

| Structure (SMILES) | Potency |
| --- | --- |
| C=CC[C@@H](CC(=O)N[C@@H](CO)Cc1ccccc1)C(=O)N[C@H](COC(=O)[C@H](CC=C)CC(=O)OC(C)(C)C)Cc1c[nH]c2ccccc12 | inconclusive: 39.8 µM [inhibitor, single point] |
| CN(C)c1ccc(/C=C/c2c([N+](=O)[O-])c(=O)n(C)c(=O)n2C)cc1 | inactive |
| O=C(COC(=O)c1cc(S(=O)(=O)N2CCCCC2)ccc1N1CCOCC1)c1ccc(F)cc1 | inactive |
| CCN(CC)C(=O)c1cccc(-c2csc(C(O)c3ccccc3)n2)c1 (stereo not given) | inconclusive: 31.6 µM [inhibitor, single point] |
| Cc1cc(C)cc(N2C(=O)N(Cc3cccc(F)c3)c3ccccc3S2(=O)=O)c1 | inactive |
| CCOc1ccc(/C=C/[N+](=O)[O-])c2ccccc12 | active: 25.1 µM |
| COc1ccc(Nc2oc(-c3ccc(COc4ccccc4C)o3)nc2C#N)cc1 | inconclusive: 0.891 µM [inhibitor, partial curve, poor fit] |
| Fc1c(F)c(F)c(/C=N/NC(=S)Nc2cccnc2)c(F)c1F | inconclusive: 33.6 µM [inhibitor, partial curve, poor fit] |
| COc1ccc(CCNC(=S)NC(=O)c2cccc(Cl)c2)cc1OC | inconclusive: 39.8 µM [inhibitor, single point] |
| CC1CN(c2nc(-c3ccc(Br)cc3)nnc2-c2ccccc2)CC(C)N1 (stereo not given) | inconclusive: 12.6 µM [inhibitor, partial curve, poor fit] |
| Cc1ccc(NC(=O)CN2C(=O)N/C(=C/c3cc(C)n(-c4cccc(C(=O)O)c4)c3C)C2=O)cc1 | inactive |
| Cc1cc(O)ccc1-c1cc(C(=O)NCc2cc(C(F)(F)F)cc(C(F)(F)F)c2)[nH]n1 | inactive |
| CCOc1ccc(C(=O)Nc2cnn(Cc3ccc(Cl)c(Cl)c3)c2)cc1 | inconclusive: 5.01 µM [inhibitor, partial curve, poor fit] |
| CCc1nc2c(OCc3cccc(Cl)c3)cccn2c1N(C)C(=O)C1CC1 | inactive |
| c1c2c(cc3sc(N4CCOCC4)nc13)OCO2 | inconclusive: 39.8 µM [inhibitor, single point] |
| COc1ccc(N2CCN(C(=O)COC(=O)CCOc3ccc(C)cc3)CC2)cc1 | inactive |
| Cc1ccc(NC(=O)c2cc(S(=O)(=O)NCCc3ccc(Cl)cc3)ccc2F)cc1 | inconclusive: 20 µM [inhibitor, single point] |
| CCN(Cc1ccccc1)S(=O)(=O)c1ccc(C(=O)Nc2nnc(-c3ccccc3OC)o2)cc1 | inconclusive: 17.8 µM [inhibitor, partial curve, poor fit] |
| CCn1c(SCC(=O)Nc2ccc(C(C)=O)cc2)nc2nc3c(cc2c1=O)CCCC3 | inconclusive: 39.8 µM [inhibitor, single point] |
| O=C(Nc1ccc2c(c1)OCCO2)C(CCc1ccccc1)N1CCN(C/C=C/c2ccccc2)CC1 (stereo not given) | inconclusive: 39.8 µM [inhibitor, single point] |
| COc1ccc(CCNc2ncnc3c2cnn3-c2cc(Cl)ccc2C)cc1 | inconclusive: 28.2 µM [inhibitor, single point] |
